Experimental data taken from PubChem BioAssay AID485341 (National Center for Advancing Translational Sciences (NCATS), 2010).
Hit rate of the full screen: of about 330,000 compounds, about 1,700 (0.52%) were called active. Inconclusive results, whose numbers are uncertain, are shown with a selection of clear calls. Calls follow the shape of the dose curve; as a rule, active = well fitted inhibition curve with a large enough effect; inconclusive = small, poorly fitted or top-dose-only effect; inactive = no such curve, though single readings can be large or run the other way. Potencies of inconclusive entries are doubtful fits and often do not repeat.

biological target: Beta-lactamase (Escherichia coli (strain K12)) (UniProt P00811); test: qHTS Inhibitors of AmpC Beta-Lactamase (assay without detergent); conditions: AmpC nitrocefin hydrolysis, absorbance 480 nm, 0.0001% Triton; activity change, negative = inhibition: at 57.1 µM (top of the series) unless noted; also: nearly all actives have a fitted effect of over 20% in size
Summary of the method: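 20 mM phosphate pH 7.0 + 0.01% (detergent screen) or 0.0001% Triton X-100; 5.3 nM AmpC reagent; cpd preinc 15 min RT; nitrocefin (800 uM stock) to start; A480 q20 s × 4 min; Activity was normalised to no-enzyme and no-compound control wells.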
Potency is read from the fitted curve at half-maximal effect; tags tell the direction and shape of the fitted curve.

UniProt P00811, sequence (P00811 whole entry, looked up): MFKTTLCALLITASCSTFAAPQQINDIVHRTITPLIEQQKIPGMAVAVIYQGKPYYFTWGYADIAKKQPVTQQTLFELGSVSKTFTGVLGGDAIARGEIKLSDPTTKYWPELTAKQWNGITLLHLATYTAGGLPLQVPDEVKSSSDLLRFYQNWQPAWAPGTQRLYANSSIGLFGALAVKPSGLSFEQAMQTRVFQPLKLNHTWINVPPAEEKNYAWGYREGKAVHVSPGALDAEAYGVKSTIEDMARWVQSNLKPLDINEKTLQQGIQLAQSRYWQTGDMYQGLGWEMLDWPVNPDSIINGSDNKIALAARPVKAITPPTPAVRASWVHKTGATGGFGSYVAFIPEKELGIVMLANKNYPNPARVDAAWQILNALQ

Row | SMILES | Potency | activity change, negative = inhibition
1 | O=C(NCCCn1ccnc1)c1ccc(COc2ccccc2)o1 | inconclusive: 39.8 µM [inhibitor, single point] | –
2 | O=C1CCC(=O)N1CCSC(=S)N1CCSCC1 | – | inactive: 3.19%
3 | N#CCC(=N)N1CCN(c2ccc(Cl)cc2)CC1 | inconclusive: 5.01 µM [inhibitor, single point] | –
4 | CC(=O)c1c(C)[nH]c(C(=O)OC(C)C(=O)Nc2cc(S(=O)(=O)N3CCCCC3)ccc2Cl)c1C (centres undefined) | active: 7.94 µM | –
5 | Cc1ccc(-c2csc3ncnc(SCC(=O)Nc4nnc(C)s4)c23)cc1 | inconclusive: 7.94 µM [inhibitor, single point] | –
6 | COCCn1c(C)cc(C(=O)CSc2ncn[nH]2)c1C | – | inactive: -18.5%
7 | Cc1cc2nc(SCCOC(=O)Nc3ccc(Cl)cc3)nc(C)c2cc1C | – | inactive: -22.8%
8 | O=C(c1ccccc1)N1N=C(c2ccccc2)CC1c1ccccc1O (centres undefined) | inconclusive: 2.24 µM [inhibitor, full curve, poor fit] | –
9 | O=C(CCc1ccccc1)Nc1cccc(-c2nnc(-c3ccco3)o2)c1 | inconclusive: 6.31 µM [inhibitor, single point] | –
10 | NS(=O)(=O)c1cccc(NS(=O)(=O)c2ccc(/C=C/C(=O)OCC(=O)c3ccccc3)cc2)c1 | active: 3.55 µM | –
11 | CCOC(=O)C(CCC(C)=O)C(=O)c1ccccc1 (centres undefined) | – | inactive: -4.84%
12 | Cc1ccc(NS(=O)(=O)c2cc(NC(=O)c3ccc4c(c3)NC(=O)CS4)ccc2C)c(C)c1 | inconclusive: 3.55 µM [inhibitor, full curve, poor fit] | –
13 | CCc1ccc2c(c1)cc(CN(C(=S)Nc1ccccc1C)C1CC1)c1nnnn12 | inconclusive: 6.31 µM [inhibitor, single point] | –
14 | CCOC(=O)N1CCN(S(=O)(=O)c2ccc(C(=O)N(CCCN(C)C)c3nc4c(C)c(C)ccc4s3)cc2)CC1 | inconclusive: 39.8 µM [inhibitor, single point] | –
15 | CCCCOc1ccc(S(=O)(=O)N2CCN(c3ccc(N4CCN(CC)CC4)nn3)CC2)cc1 | – | inactive: -0.203%
16 | O=C(c1ccco1)N1CCN(c2nc(C3CC3)nc3sc4c(c23)CCCC4)CC1 | – | inactive: 42.4%
17 | O=C(NN=C1CCCC1)c1cc(Br)ccc1O | active: 7.94 µM | –
18 | COC(=O)c1c(C)[nH]c(C(=O)OCC(=O)N2c3ccccc3NC(=O)C2(C)C)c1C | – | inactive: -21%
19 | COc1ccc(NS(=O)(=O)c2csc(C(N)=O)c2)cc1 | – | inactive: -10.1%
20 | COCc1cc(=O)[nH]c2cc(NC(=O)C(C)(C)CCl)c(C)cc12 | inconclusive: 0.708 µM [inhibitor, partial curve, poor fit] | –
21 | COC(=O)[C@H](Cc1ccccc1)NC(=O)O[C@H]1C(=O)c2ccc(OC)cc2O[C@@H]1c1ccc2c(c1)OCO2 | inconclusive: 10 µM [inhibitor, partial curve] | –
22 | CC(C)(C)c1ccccc1NC(=O)c1ccc(-n2cncn2)c([N+](=O)[O-])c1 | inconclusive: 31.6 µM [inhibitor, single point] | –

Row | SMILES | Potency | activity change, negative = inhibition
23 | O=[N+]([O-])c1ccccc1N/N=C/c1c[nH]c2ccccc12 | inconclusive: 31.6 µM [inhibitor, single point] | –
24 | Cc1ccc(OCC(O)CN2C(=O)NC(C)(C)C2=O)cc1C (centres undefined) | inconclusive: 22.4 µM [inhibitor, partial curve, poor fit] | –
25 | O=c1[nH][nH]c2cc(=O)n(-c3cccc(C(F)(F)F)c3)nc12 | active: 20 µM | –
26 | C/C(Cc1ccccc1)=N\NC(=O)CNC(=O)c1ccc(C(C)(C)C)cc1 | inconclusive: 31.6 µM [inhibitor, single point] | –
27 | Cc1ccc(SCC(=O)c2ccc(CC(=O)O)s2)cc1 | active: 20 µM | –
28 | Cc1ccccc1NC(=S)NNC(=O)c1csc2c1CCC(C)C2 (centres undefined) | – | inactive: -46.9%
29 | COc1ccc2c(c1)-c1c(ssc1=S)C(C)(C)N2S(=O)(=O)c1ccc(C)cc1 | inconclusive: 35.5 µM [inhibitor, single point] | –
30 | COC(=O)c1ccc(-n2cc(-c3ccc(OC)cc3)[nH]c2=S)cc1 | inconclusive: 39.8 µM [inhibitor, single point] | –
31 | N#CC(=C1CCCC1)c1nc(-c2ccccc2O)cs1 | inconclusive: 28.2 µM [inhibitor, partial curve] | –
32 | CC1CCc2nn(CC(=O)NCCN3CCCCC3C)cc2C1 (centres undefined) | active: 28.2 µM | –
33 | COc1ccccc1C(=O)N/N=C/c1c[nH]c2ccccc12 | – | inactive: -26.3%
34 | COc1ccccc1-c1c(C)oc2c(CN3CCCC(C)C3)c(O)ccc2c1=O (centres undefined) | – | inactive: -19.2%
35 | CCN(C(=O)COC(=O)CNC(=O)c1cccc(C)c1)c1c(N)n(Cc2ccccc2)c(=O)[nH]c1=O | inconclusive: 39.8 µM [inhibitor, single point] | –
36 | CC(=Nc1ccccc1N)c1c(O)n(C)c(=O)[nH]c1=O | – | inactive: -7.85%
37 | O=S(=O)(Nc1nc2ccccc2nc1Nc1cccc(S(=O)(=O)N2CCCCC2)c1)c1ccccc1 | inconclusive: 3.16 µM [inhibitor, partial curve] | –
38 | CCOc1ccccc1NC(=O)COc1ccc2ccc(=O)oc2c1 | – | inactive: -20.7%
39 | COc1ccc(-c2nn(-c3ccccc3)cc2C(=O)NCC(c2cccs2)N2CCOCC2)cc1 (centres undefined) | inconclusive: 39.8 µM [inhibitor, single point] | –
40 | CC1(C)C2CCC1(C)C(OC(=O)c1ccc(O)cc1)C2 (centres undefined) | inconclusive: 2.51 µM [inhibitor, full curve, poor fit] | –
41 | O=S(=O)(Nc1cccc(-c2cn3c(n2)SCC3)c1)c1ccccc1 | inconclusive: 10 µM [inhibitor, partial curve, poor fit] | –
42 | COc1cc(/C=C(\C#N)c2nc3ccc(C)cc3[nH]2)cc([N+](=O)[O-])c1O | inconclusive: 7.08 µM [inhibitor, partial curve] | –
43 | COCCOC(=O)c1[nH]c2c(c1C)C(=O)CC(c1cc(OC)ccc1OC)C2 (centres undefined) | inconclusive: 2.51 µM [inhibitor, full curve, poor fit] | –
44 | CCCCOC(=O)n1c(=O)oc2cc(S(=O)(=O)N3CCCCC3)ccc21 | inconclusive: 2.51 µM [inhibitor, full curve, poor fit] | –
